Test results taken from the supplement of paper PMC8183993.
“And” between values parts separate entries of the source, which are not always exact repeats. Identical values can stand only once. Counter-ions that a name gives are not always drawn. ± gives the standard deviation of the averaged measurements. Over roughly 3,200 compounds, “nuclei count (viability) relative to DMSO” has its median near 99; the lowest 2% begin near 16. The list shows a part of the results.

system: U2OS; test: nuclei count (viability) relative to DMSO (% of DMSO); higher = more viable cells; conditions: 10 µM; 24 h
Experimental: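 Primary image-based screen in U2OS cells: compounds at 10 uM for 24 h, then a 1 h o-propargyl-puromycin (OPP) pulse, click labelling, and high-throughput microscopy. Mean cytoplasmic OPP intensity and nuclei count were normalised to DMSO wells within each plate (DMSO = 100) and averaged over triplicate plates.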

Compound	nuclei count
N#C/C(=C\c1ccc(O)c(O)c1)C(=O)NCCCc1ccccc1	100
C=C1c2cccc(O)c2C(O)=C2C(=O)[C@]3(O)C(O)=C(C(N)=O)C(=O)[C@@H](N(C)C)[C@@H]3[C@@H](O)[C@H]12 [Methacycline HCl (Physiomycine)]	95.9
O=C(O)c1cc(/N=N/c2ccc(S(=O)(=O)Nc3ccccn3)cc2)ccc1O [Sulfasalazine]	110
NC(=O)c1ccc(I)c([N+](=O)[O-])c1 [Iniparib (BSI-201)]	95.5
O=C(O)c1ccccc1Nc1cccc2c1C(=O)c1cccc(Nc3ccccc3C(=O)O)c1C2=O	91.8
CC1=C(/C=C/C(C)=C/C=C/C(C)=C/CO)C(C)(C)CCC1 [all-trans-Retinol]	103
OCCn1cc(-c2cnc3nnn(Cc4ccc5ncccc5c4)c3n2)cn1	110
Cc1ncc([N+](=O)[O-])n1CC(C)O (configuration not stated) [Secnidazole]	90.2
C/C=C(/C(=C/C)c1ccc(O)cc1)c1ccc(O)cc1 [Dienestrol]	101
O=C(O)c1ccccc1OP(=O)(O)O [Fosfosal]	96.9
CC(C)C[C@H](NC(=O)N1CCCCCC1)C(=O)N[C@H](Cc1cn(C)c2ccccc12)C(=O)N[C@H](Cc1ccccn1)C(=O)O	100
CCCCn1c(=O)c2[nH]c(C34CC5CC(CC3C5)C4)nc2n(CCCO)c1=O	110
CC1=C(/C=C/C(C)=C/C=C/C(C)=C\CO)C(C)(C)CCC1 [13-cis-Retinol]	85
Nc1cc(N2CCCCC2)nc(N)[n+]1[O-] [Minoxidil]	99.8 ± 10
CS(=O)(=O)Nc1c(O)ccc2c1CCCC2C1=NCCN1 (configuration not stated)	94.1
N#Cc1cc(CN2CCC(Nc3ncnc4sc(Cl)cc34)CC2)ccc1F	103
COc1ccc2cc([C@H](C)C(=O)O)ccc2c1 [Naproxen (Aleve)]	92.8
COc1ccc2cc([C@H](C)C(=O)O)ccc2c1 [Naproxen sodium]	109
COc1ccc2cc([C@H](C)C(=O)O)ccc2c1 [Naproxen]	103
CC(C)C[C@H](NC(=O)[C@H](CCC(=O)O)NC(=O)CNC(=O)c1ccc(/C=C/C(=O)O)cc1)C(N)=O	97.5
C[C@]12CCC(=O)C=C1[C@@H]1C[C@@H]1[C@H]1[C@@H]3[C@@H]4C[C@@H]4[C@@]4(CCC(=O)O4)[C@@]3(C)CC[C@@H]12 [Drospirenone]	111
O=C(O)c1cc(=O)[nH]c(=O)[nH]1 [Orotic acid (6-Carboxyuracil)]	108
O=c1n(CCCN2CCN(c3cccc(Cl)c3)CC2)nc2ccccn12 [Trazodone hydrochloride]	107
CC1(C)S[C@@H]2[C@H](NC(=O)[C@H](N)c3ccccc3)C(=O)N2[C@H]1C(=O)O [Ampicillin trihydrate]	102

Compound	nuclei count
CC1(C)S[C@@H]2[C@H](NC(=O)[C@H](N)c3ccccc3)C(=O)N2[C@H]1C(=O)O [Ampicillin sodium]	104
CCOc1cc(C(=O)Nc2ccc(Cl)c(-c3nc4ccccc4[nH]3)c2)cc(OCC)c1OCC	79.2
CN(C)C(=O)n1nnnc1Cc1ccc(-c2ccccc2)cc1	20.7
C=C[C@H]1CN2CC[C@H]1C[C@H]2[C@H](O)c1ccnc2ccc(OC)cc12 [Quinine HCl 2H2O]	99.5
CCC(NC(C)C)C(O)c1ccc(O)c2[nH]c(=O)ccc12 (configuration not stated) [Procaterol hydrochloride]	91.8
O=C(O)c1ccc2cc(-c3ccc(O)c(C45CC6CC(CC(C6)C4)C5)c3)ccc2c1	43.7
O=C(NC[C@H](O)CO)c1ccncc1Nc1ccc(I)cc1F	104
Cc1ccc(C(=O)Nc2ccc(CN3CCN(C)CC3)c(C(F)(F)F)c2)cc1C#Cc1cnc2[nH]ncc2c1 [GZD824 Dimesylate]	14.1
Oc1ccc(-c2nc(-c3ccc(F)cc3)c(-c3ccncc3)[nH]2)cc1	75.4 and 91.6
O=C(Nc1ccc(S(=O)(=O)Nc2ccccc2Cl)c(Cl)c1)c1ccccn1	93.1
NC(=O)c1cnccn1 [Pyrazinamide]	111
CO[C@@H]1[C@H](OC(=O)/C=C/C=C/C=C/C=C/C(=O)O)CC[C@]2(CO2)[C@H]1[C@@]1(C)O[C@@H]1CC=C(C)C [Fumagillin]	89.1
Nc1nc(N)c(N=O)c(OCC2CCCCC2)n1	99.9 ± 0.56
C#Cc1cccc(Nc2ncnc3cc(OCCOC)c(OCCO)cc23)c1 [OSI-420 (Desmethyl Erlotinib)]	90.3
Cn1cnc2c(F)c(Nc3ccc(Br)cc3F)c(C(=O)NOCCO)cc21	89.3
N[C@@H](Cn1ccc(=O)n(Cc2ccccc2C(=O)O)c1=O)C(=O)O	99.6 and 101
CCCCC[C@H](O)/C=C/[C@H]1[C@H](O)CC(=O)[C@@H]1C/C=C\CCCC(=O)O [Prostaglandin E2]	104
O=C1[C@@H]2[C@H]3CC[C@H](C3)[C@@H]2C(=O)N1C[C@@H]1CCCC[C@H]1CN1CCN(c2nsc3ccccc23)CC1 [Lurasidone HCl]	102
N/C(=N\C(=O)c1nc(Cl)c(N)nc1N)NCc1ccccc1 [Benzamil]	102
N/C(=N\C(=O)c1nc(Cl)c(N)nc1N)NCc1ccccc1 [Benzamil hydrochloride]	98.7
O=C(CCNNC(=O)c1ccncc1)NCc1ccccc1 [Nialamide]	109
CCCn1c(=O)c2[nH]c(C3CCCC3)nc2n(CCC)c1=O	73.8
Nc1ccc(-c2ccc3ncc4ccc(=O)n(-c5cccc(C(F)(F)F)c5)c4c3c2)cn1 [Torin 2]	27.7 ± 1.8
Cc1nc2ccccn2c(=O)c1CCN1CCC(C(=O)c2ccc(F)cc2)CC1 [Pirenperone]	118

Compound	nuclei count
COc1cccc2c1C(=O)c1c(O)c3c(c(O)c1C2=O)C[C@@](O)(C(=O)CO)C[C@@H]3O[C@H]1C[C@H](N)[C@@H](O)[C@H](C)O1 [Epirubicin HCl]	13.2
CCCN(CCC)CCc1cccc2c1CC(=O)N2 [Ropinirole HCl]	106
CC(=O)O[C@H]1C(=O)[C@@]2(C)[C@H]([C@H](OC(=O)c3ccccc3)[C@]3(O)C[C@H](OC(=O)[C@H](O)[C@@H](NC(=O)c4ccccc4)c4ccccc4)C(C)=C1C3(C)C)[C@]1(OC(C)=O)CO[C@@H]1C[C@@H]2O [Taxol]	40.6
CC(=O)O[C@H]1C(=O)[C@@]2(C)[C@H]([C@H](OC(=O)c3ccccc3)[C@]3(O)C[C@H](OC(=O)[C@H](O)[C@@H](NC(=O)c4ccccc4)c4ccccc4)C(C)=C1C3(C)C)[C@]1(OC(C)=O)CO[C@@H]1C[C@@H]2O [Paclitaxel]	41.5
CC(=O)O[C@H]1C(=O)[C@@]2(C)[C@H]([C@H](OC(=O)c3ccccc3)[C@]3(O)C[C@H](OC(=O)[C@H](O)[C@@H](NC(=O)c4ccccc4)c4ccccc4)C(C)=C1C3(C)C)[C@]1(OC(C)=O)CO[C@@H]1C[C@@H]2O [Paclitaxel (Taxol)]	42.1
NC(=O)c1cccc(-c2cccc(OC(=O)NC3CCCCC3)c2)c1	103
NCCCCCc1c[nH]cn1 [Impentamine dihydrobromide]	90.5
NC(=O)c1cnc(N[C@@H]2CCCC[C@@H]2N)nc1Nc1cccc(-n2nccn2)c1	54.8 ± 4.5
NS(=O)(=O)c1cc2c(cc1Cl)NC(C(Cl)Cl)NS2(=O)=O (configuration not stated) [Trichlormethiazide]	101
CN[C@@H]1[C@H](O)[C@H](NC)[C@H]2O[C@@]3(O)C(=O)C[C@@H](C)O[C@H]3O[C@@H]2[C@H]1O [Spectinomycin dihydrochloride]	109
N#Cc1ccc(C2CCCc3cncn32)cc1 (configuration not stated) [Fadrozole hydrochloride]	107
COC(=O)C1=CO[C@@H](O[C@@H]2O[C@H](CO)[C@@H](O)[C@H](O)[C@H]2O)[C@@H]2C(CO)=CC[C@H]12 [Geniposide]	103
Cc1onc(-c2ccccc2Cl)c1C(=O)N[C@@H]1C(=O)N2[C@@H]1SC(C)(C)[C@@H]2C(=O)O [Cloxacillin sodium salt]	108
Cc1onc(-c2ccccc2Cl)c1C(=O)N[C@@H]1C(=O)N2[C@@H]1SC(C)(C)[C@@H]2C(=O)O [Cloxacillin sodium (Cloxacap)]	110
N[C@@H](C(=O)N[C@@H]1C(=O)N2C(C(=O)O)=C(Cl)CC[C@H]12)c1ccccc1 [Loracarbef]	105
COc1ccc(Cn2ccc3ccc(C(=O)NO)cc32)cc1	101
C#Cc1cccc(Nc2ncnc3cc(OCCOC)c(OCCOC)cc23)c1 [Erlotinib]	90.5
CN[C@@H]1[C@@H](O[C@H]2O[C@H](CO)[C@@H](N)[C@H](O)[C@H]2O)OC2C[C@@H](N)[C@@H](O[C@H]3[C@H](O)[C@@H](O)[C@H](N)C[C@@H]3N)OC2[C@@H]1O (some centres not stated) [Apramycin]	109
CC1(C)O[C@H]2CC(=O)OC[C@]23[C@H]2CC[C@@]4(C)[C@H](c5ccoc5)OC(=O)[C@H]5O[C@]54[C@]2(C)C(=O)C[C@@H]13 [Limonin]	95.5
CCCCCCOC(=O)NC(=N)c1ccc(NCc2nc3cc(C(=O)N(CCC(=O)OCC)c4ccccn4)ccc3n2C)cc1 [BIBR-1048 (Dabigatran etexilate, Pradaxa)]	98.1
CC(C)C[C@@H](C(=O)N[C@H](C(=O)OC1CCCC1)c1ccccc1)[C@H](O)C(=O)NO	78.4
CC(C)C[C@@H](C(=O)N[C@H](C(=O)OC1CCCC1)c1ccccc1)[C@H](O)C(=O)NO [Tosedostat (CHR2797)]	92.8
COc1ccc(O)cc1 [Mequinol]	96
CCCCCCCCCCCCCCCCCCCCCCO [Docosanol (Abreva)]	106
